Reference: publication PMC3618186
Substitutions are numbered along the chain they refer to. Results are given in words; binding and its absence hold for the method and conditions named. Some binding calls cover weakened binding; strength is not graded here.

Protein sequences, listed by entry. Tags and fused reporters are not part of them. Residues count along the entry.
UniProt P28023, residues 381-530: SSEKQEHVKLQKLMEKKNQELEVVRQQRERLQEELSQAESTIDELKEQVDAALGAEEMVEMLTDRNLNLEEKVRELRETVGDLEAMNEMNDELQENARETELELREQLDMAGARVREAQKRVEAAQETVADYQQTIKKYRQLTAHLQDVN
UniProt P63170: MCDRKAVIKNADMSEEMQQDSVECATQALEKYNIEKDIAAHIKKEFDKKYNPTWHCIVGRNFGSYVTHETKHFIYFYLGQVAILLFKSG

Columns and labels:
[1] = molecular target: dynactin p150^Glued coiled-coil 1B (CC1B), residues 381–530 (R. norvegicus) (UniProt P28023); experiment: native gel or EMSA; native PAGE; purified proteins incubated at 25°C for five minutes in equimolar or two fold molar excess; 12% gels with a stacking gel at pH 7.4 or 8–25% gradient gels; both purified
[2] = molecular target: dynactin p150^Glued coiled-coil 1B (CC1B), residues 381–530 (R. norvegicus) (UniProt P28023); experiment: SEC; equimolar Pac11-LC8 complex (wild type or R12A,Q13A,L14A) and CC1B, analytical Superdex 75 10/300 GL; fractions checked by SDS-PAGE; both purified
[3] = molecular target: dynactin p150^Glued coiled-coil 1B (CC1B), residues 381–530 (R. norvegicus) (UniProt P28023); experiment: AUC; sedimentation equilibrium at a single speed of 25000 rpm at 5, 10, 15, 20 and 25°C; proteins alone and as admixtures, 10 μM each; fit to a single molecular weight; both purified
[4] = molecular target: T1, S. cerevisiae dynein intermediate chain Pac11, residues 1–86, wild type (S. cerevisiae) (UniProt P40960); experiment: AUC; sedimentation equilibrium of a complex of p150Glued, Pac11 1-86 and LC8; data not shown; both purified
T1 sequence: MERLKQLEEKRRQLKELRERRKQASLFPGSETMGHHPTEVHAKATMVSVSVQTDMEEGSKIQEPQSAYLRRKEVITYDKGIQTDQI

[5] = molecular target: T2, Pac11 1–86 R12A,Q13A,L14A (S. cerevisiae) (UniProt P40960); experiment: SEC; equimolar Pac11-LC8 complex (wild type or R12A,Q13A,L14A) and CC1B, analytical Superdex 75 10/300 GL; fractions checked by SDS-PAGE; both purified
T2 sequence: T1 sequence with R12A, Q13A, L14A

[6] = molecular target: T1, S. cerevisiae dynein intermediate chain Pac11, residues 1–86, wild type (S. cerevisiae); experiment: as above
[7] = molecular target: T2, Pac11 1–86 R12A,Q13A,L14A (S. cerevisiae); experiment: native gel or EMSA; native PAGE; purified proteins incubated at 25°C for five minutes in equimolar or two fold molar excess; 12% gels with a stacking gel at pH 7.4 or 8–25% gradient gels; both purified
[8] = molecular target: T1, S. cerevisiae dynein intermediate chain Pac11, residues 1–86, wild type (S. cerevisiae); experiment: as above
[9] = molecular target: dynactin p150^Glued coiled-coil 1B (CC1B), residues 381–530 (R. norvegicus) (UniProt P28023); experiment: AUC; sedimentation equilibrium of a complex of p150Glued, Pac11 1-86 and LC8; data not shown; both purified

Substance: Pac11 1–86 E9A,K10A,R11A with LC8 (from UniProt P40960 1-86; P63170 1-89) (complex)
- binding [1]: binds

Substance: Pac11 1–86 E19A,R20A,R21A with LC8 (from UniProt P40960 1-86; P63170 1-89) (complex)
- binding [1]: binds

Substance: Pac11 1–86 L4A,K5A,Q6A with LC8 (from UniProt P40960 1-86; P63170 1-89) (complex)
- binding [1]: binds

Substance: Pac11 1–86 L17A,R18A with LC8 (from UniProt P40960 1-86; P63170 1-89) (complex)
- binding [1]: binds

Substance: Pac11 1–86 Q6A,L7A,E8A with LC8 (from UniProt P40960 1-86; P63170 1-89) (complex)
- binding [1]: binds

Substance: Pac11-R12A,Q13A,L14A(12AAA)-LC8 complex (from UniProt P40960 1-86; P63170 1-89)
- binding [2]: no binding
- binding [1]: no binding

Substance: dynactin p150^Glued coiled-coil 1B (CC1B), residues 381–530 (from UniProt P28023 381-530) (domain or fragment)
- binding [3]: no binding (condition: at temperatures above 13°C)

Substance: dynein light chain 8 (LC8) (from UniProt P63170 1-89)
- binding [4]: binds
- binding [5]: binds
- binding [6]: binds
- binding [7]: binds
- binding [8]: binds

Substance: wt-Pac11^1–86-LC8 complex (from UniProt P40960 1-86; P63170 1-89)
- binding [9]: binds
- binding [2]: binds
- binding [1]: binds
